Laboratory results published in ChEMBL document CHEMBL4888484, “Replenishing the malaria drug discovery pipeline: Screening and hit evaluation of the MMV Hit Generation Library 1 (HGL1) against asexual blood stage Plasmodium falciparum ,using a nano luciferase reporter read-out” (2022).
The campaign covered roughly 150,000 compounds. About 540 (0.36%) showed an effect of 50% or more. Some of the results follow.

Each compound was assayed on Plasmodium falciparum (assay: Primary screen in NF54 nanoGlo assay, in single point, at 2uM, 72h; a lower Z score goes with more inhibition). Details: timepoint 72 hour.
Format: functional, Erythrocyte

SMILES | % Inhibition [%] | Z score
CN(C(=O)CCC(F)(F)F)[C@H]1CC(=O)N(Cc2ccccc2)C1=O | -5 | 0.6
O=C(CCN1CCc2sccc2C1)Nc1cccnc1 | -9 | 1.12
CC(=O)c1ccc(NC(=O)Cn2nc(C(=O)N3CCOCC3)cc2C)cc1 | -4 | 0.61
COc1c(C)cc(C(=O)[C@H]2CCCN(Cc3nc4ccccc4n3C)C2)cc1C | -23 | 2.03
Cc1cc(C(=O)NCCc2ccc3c(c2)OCO3)c(C)[nH]1 | -11 | 2.06
CC1=CCCC(C)C1CNCC(O)c1ccncc1 (stereo not given) | 2 | -0.25
CC1CC(C)C(C(=O)NS(=O)(=O)c2ccc3ccccc3c2F)O1 (stereo not given) | -6 | 1.04
COc1cc(CN(C)CCC2CCOCC2)ccc1OC[C@@H](O)CN1CCCCCCC1 | -4 | 0.77
O=C(Nc1cccc(C(F)(F)F)c1)[C@@H]1COCC(=O)N1Cc1ccccc1 | 0 | 0.05
CN(Cc1cccc(F)c1)C(=O)Cn1cnc2c1c(=O)n(C)c(=O)n2C | -9 | 0.74
COc1ccccc1CCNC(=O)N(Cc1ccccn1)C[C@@H]1CCC(=O)N1 | -1 | 0.12
Cc1[nH]c(=O)c(C#N)cc1C(=O)NCc1cccnc1Oc1ccccc1F | -10 | 1.26
Cc1ccc(-c2nnc(-c3nc(NCc4ccc(F)cc4)c4ccccc4n3)o2)cc1 | -11 | 2.05
Cn1cnc(CCNC(=O)OC[C@H]2CCCO2)c1Br | 3 | -0.48
O=C(N1CCCC1)N1CC[C@@]2(O)CCN(Cc3cccc4ncccc34)C[C@H]2C1 | -6 | 0.93
Nc1ccc(F)cc1NC(=O)c1coc(-c2ccccc2)n1 | -10 | 1.7
N#Cc1c2n(c(=O)n(C[C@H](O)COCc3ccco3)c1=O)CCC2 | -2 | 0.23
CN(C(=O)NCCc1csc(C(C)(C)C)n1)[C@H]1CCCNCC1 | 10 | -1.29
COc1cccc(CC(=O)N2CCc3nc(N4CCC(C)CC4)nc(Oc4ccccc4OC)c3C2)c1 | 27 | -5.15
CCN(Cc1cccc2cccnc12)c1ccccc1 | -5 | 0.48
O=C1N[C@@](Cc2ccccc2Cl)(C2CCN(C/C=C/c3ccco3)CC2)C(=O)N1CC1CC1 | -11 | 1.42
Cc1cccc2sc(OC3CN(C(=O)c4ccc5[nH]cnc5c4)C3)nc12 | -8 | 0.91

SMILES | % Inhibition [%] | Z score
O=C(c1c(F)cccc1Cl)N1CCO[C@H](c2ncon2)C1 | 0 | 0.03
O=C(CCc1ccc2c(c1)CCO2)NC1CCCC1 | 5 | -0.58
C[C@H](NC(=O)Nc1ccc(-c2cc[nH]n2)cc1)c1nc(C2CCCC2)no1 | 2 | -0.26
C=CCCCC(C)NC(=O)N1CCOC(c2nc(C)cs2)C1 (stereo not given) | -16 | 2.25
O=C(c1csc2c1CCCC2)N1CCC[C@H](Nc2ccc3c(c2)OCCO3)C1 | 2 | -0.24
CCc1ccc(S(=O)(=O)N(CCN(C)C)Cc2ccccc2F)s1 | -2 | 0.27
NS(=O)(=O)c1ccc(-n2ccnc2-c2cc(-c3ccccc3)no2)cc1 | -16 | 1.47
Cc1c(C(=O)N[C@H](c2cccnc2)c2cc3ccccc3o2)cnn1C | 14 | -2.12
CC(NC(=O)C1CCCN(c2nccn3nc(-c4cccc(Cl)c4)cc23)C1)c1ccccc1 (stereo not given) | 2 | -0.26
C[C@H]1Cc2cc(Br)cc3c(=O)c(C(=O)Nc4ccc(F)cc4)cn1c23 | -1 | 0.12
C#CCCC1(CCC(=O)N2Cc3cccnc3C2)N=N1 | 0 | 0.01
CN(CCN(C)C1CC1)C(=O)[C@@H]1CCc2cccnc21 | -9 | 1.54
CC(C)Cc1nc(NC(=O)[C@H]2CC(=O)N(c3n[nH]c4ccccc34)C2)n[nH]1 | -11 | 1.37
COc1ccc(CN2Cc3ccccc3C2=N)cc1OC | 32 | -3.64
CC(C)CC(=O)N1CCC[C@H]1c1cccs1 | -10 | 1.09
CCc1ccc2c(c1)c(-c1ccc(Cl)cc1)c(C(=O)N1CCCCC1)n2C | -8 | 0.97
O=C(NC1CCCCC1)c1nc(Cn2cnc3ccccc3c2=O)no1 | -7 | 0.92
Cn1c(CCN2C[C@@](C)(Cc3ccc4c(c3)OCO4)CCC2=O)n[nH]c1=O | -1 | 0.16
O=C(CCc1cn[nH]c1)N(CC1CC1)C1CCCCC1 | -10 | 1.05
CC(C)C[C@@H](CN1CCCC1)NC(=O)c1ccon1 | -3 | 0.62
Cc1ccc2c(c1)N(Cc1c(C)noc1C)N=C(C(=O)N1CCOCC1)S2(=O)=O | 10 | -1.29
O=C([C@@H]1CCCCN1S(=O)(=O)c1ccoc1)N1CCOCC1 | -13 | 1.86

SMILES | % Inhibition [%] | Z score
C1=CO[C@@H](CN(CCOc2ccccc2)C2CCOCC2)CC1 | 5 | -0.49
CCN(c1cccc(C)c1)[C@@H](C(=O)NC1CCCCC1)c1ccc(C)cc1 | -8 | 1.2
O=C(N[C@@H]1CN(Cc2ccncc2F)C[C@H]1CO)c1cccnc1 | -8 | 1.44
CCCc1nnc(C(=O)N(C)Cc2noc(C)n2)o1 | 5 | -0.9
CC(=O)N1CCC(C(=O)O[C@H]2C[C@@H](C)CC[C@@H]2C(C)C)CC1 | -6 | 0.64
CCN=C(NCc1noc(C)n1)NCc1ccc(C)cc1OC(C)C | -5 | 0.42
C=CCC1(CC=C)CCCCN1C(=O)c1ncc[nH]1 | -10 | 1.99
Cc1noc(C)c1CN(C)C(=O)[C@H]1CCCCN1 | 1 | -0.12
Cc1nc(C)c(C(=O)N2C[C@@H]3C[C@H]2C(=O)N3c2cccc(Cl)c2)o1 | -22 | 2.08
CCC[C@H]1CN(CCOC)C[C@@H]1NC(=O)c1nonc1C | -13 | 1.74
Cc1n[nH]c(C)c1CN(C)C(=O)CCc1ccncc1 | -15 | 2
O=C(CN1C(=O)CNC1=O)NCc1cc(-c2ccccc2)n[nH]1 | -3 | 0.48
COc1ccc(C(=O)N2CC[C@H](OCC3CC3)C2)cc1 | -6 | 0.73
O=C(c1ccc(Br)c(-n2cnnn2)c1)N1CCOCC1 | -16 | 2.29
Cc1cc(C(=O)NC(C)CC2CCCO2)c(F)cc1F (stereo not given) | 4 | -0.43
O=C1NCC2(CCN(CCc3cn[nH]c3)CC2)Oc2ccccc21 | -14 | 1.49
CCOc1ccc(C(=O)N2CCn3ccnc32)cc1 | -18 | 2.67
COc1ccc(CN(C(=O)[C@H]2C[C@@H]2C)c2ccncc2)cc1 | -22 | 2.38
Cc1ccc(C2=NN(C(=O)CN3CCN(Cc4ccccc4)CC3)[C@H](c3cccn3C)C2)cc1C | -4 | 0.45
CC(Cn1cncn1)NS(=O)(=O)N(C)C(C)C1CC1 (stereo not given) | -8 | 0.72
CCN1C(=O)N(CC)C2(O)c3ccccc3C(=O)C12O (stereo not given) | 3 | -0.36
CC(C)CCNC(=O)c1ccc(Br)cc1Br | 3 | -0.44

SMILES | % Inhibition [%] | Z score
O=C(Nc1c(Cl)cncc1Cl)c1cc(C2CC2)no1 | -6 | 1.2
CO[C@@]12CC[C@@H](NC(=O)c3ccncc3)C[C@@H]1N(C(=O)c1cnc(O)cn1)CC2 | -11 | 2.2
CC(C)n1ncnc1CNS(=O)(=O)C[C@H]1CCCO1 | -12 | 2.29
O=C(CN1C(=O)C(=O)c2ccccc21)c1ccccc1 | 7 | -0.91
CCOC1CC(NC(=O)c2nc(=O)[nH][nH]2)C1(CC)CC (stereo not given) | 1 | -0.11
CC(=C(F)C(=O)N1CCN(c2cnccn2)[C@@H](C)C1)C1CC1 | -7 | 1.35
CC(C)(C)c1nc(CNC(=O)Nc2cccs2)no1 | -6 | 1.13
CC1CCCC(C)N1S(=O)(=O)c1ccc(NC(=O)c2cnccn2)cc1 (stereo not given) | -4 | 0.5
Cc1ccc(-c2cn3c(n2)CO[C@@H](CNC(C)C)C3)cc1 | -8 | 0.97
COc1ccc2cc3c(nc2c1)N(C(=O)c1ccccc1F)CC3 | -10 | 1.66
O=C(CC1C=CCC1)NC1CC(C(=O)O)c2ccccc21 (stereo not given) | 1 | -0.16
CCOc1ccc(CN(C)C[C@H]2CCOC2)cn1 | -13 | 1.84
Cc1ccc(CCN2C(=O)CC[C@@H]3CN(C(=O)c4ccc[nH]4)CC[C@@H]32)o1 | -6 | 0.99
Cc1cnc(C2CCN(C(=O)c3cc4ccccc4[nH]3)CC2)n1CCO | 0 | 0.05
CCn1ncc2c1CCCC2NC(C)C(=O)NCCCOC (stereo not given) | 5 | -0.89
Cc1nnc2sc(-c3ccc(NC(=O)c4sc5ccccc5c4Cl)cc3)nn12 | -4 | 0.56
CCN(CC)c1n[nH]c(NCc2ccoc2C)c1C#N | -7 | 1.11
Cc1ccc(F)c(N2CCC(NC(=O)CC3OCCCO3)CC2)c1 | -4 | 0.54
Cc1ccc2sc(N(Cc3ccccc3)C(=O)CN3CCOCC3)nc2c1C | -15 | 2.75
